Experimental data as given in patent publication US20260250363A1 (AP BIOSCIENCES, published 2026).

How the values were obtained:
[1] = molecular target: T1, SARS-CoV-2 B.1.617.2 Spike Protein (R&D, Cat. #10878-CV) (SARS-CoV-2); assay: BLI (ForteBio), mAb on AHC sensor, spike in solution
[2] = molecular target: Recombinant SARS-CoV-2 BA.2 Spike (GCN4-IZ) His Protein, CF (R&D, 11109-CV) (SARS-CoV-2); assay: as above
[3] = molecular target: T2, SARS-CoV-2 B.1.1.529 Spike Protein (Omicron) (SARS-CoV-2); assay: as above
[4] = molecular target: T2, SARS-CoV-2 B.1.1.529 Spike Protein …; assay: competition ELISA: blocks biotin-ACE2 binding to coated spike
[5] = molecular target: T1, SARS-CoV-2 B.1.617.2 Spike Protein …; assay: as above
[6] = molecular target: T1, SARS-CoV-2 B.1.617.2 Spike Protein …; assay: direct ELISA on coated spike

B1: anti-SARS-CoV-2 antibody clone R4-1a-51 (antibody, V domains shown)
VH: [about 100 residues left out here]GYMDYWGQGTPVTVSS
VL: QSVLTQPPSASGTPGQRVTISCSGSSSNIGSSTVNWYQQLPETAPKLLIYSNHQRPSGVPDRFSGSKSGTSASLALSGLQSEDEAEYYCAAWDDSLNGVVFGGGTKLTVLG
[1]
  Kd: 4.13 nM
[2]
  Kd: 10.3 nM
[3]
  Kd: 3.49 nM
[4]
  IC50: 4.86 nM
[5]
  IC50: 2.99 nM
[6]
  EC50: 0.104 nM
